Assay results as given in ChEMBL document CHEMBL1201862, “PubChem BioAssay data set” (2004).
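Following 48 hours of exposure in 96-well plates, responses at five concentrations were used to interpolate endpoints linearly. GI50 is the concentration that inhibits growth by half.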 Activity calls are given as the source filed them. Rule as the data show it: active = GI50 up to about 1.1 µM and inactive = higher.

What follows are compounds tested on NCI-H322M (assay: DTP human tumour cell line panel, 48 h).

**Q.** With `CCN(CC)CCCNc1nncc2cc3c([nH]c4ccccc43)c(C)c12` as the compound, how does the GI50 read?
**A.** inactive: 4.84 µM

**Q.** Which GI50 does the source give for `CN(C)CCN1Nc2c3ccccc3nc3c(C(=O)NCCCN(C)CCCNC(=O)c4ccc5c6c(c7ccccc7nc46)NN5CCN(C)C)ccc1c23` here?
**A.** active: < 0.01 µM

**Q.** How did the GI50 turn out when `O=C(/C=C/c1ccc(O)c(O)c1)NC(CO)C(=O)O` (stereo not given) was run?
**A.** inactive: > 100 µM

**Q.** `O=C(O)c1ccc(Oc2nc3ccccc3s2)cc1` was tested. Which GI50 did it give?
**A.** inactive: > 100 µM

**Q.** `NC(=S)N/N=C(\CC1OC(=O)c2ccccc21)c1ccc(Cl)cc1` (stereo not given) was tested. Which GI50 did it give?
**A.** inactive: 41.4 µM

**Q.** For `C=CCOCn1ccc(N)nc1=O`, which GI50 is on record?
**A.** inactive: > 100 µM

**Q.** For `COCCOCc1nc(C#N)c(N)o1`, which GI50 is on record?
**A.** inactive: > 100 µM

**Q.** How did the GI50 turn out when `O=Cc1cc2sc(C=O)cc2s1` was run?
**A.** inactive: > 100 µM

**Q.** With `CC1(C)CCC[C@@]2(C)C1CC[C@@]1(CO)O[C@H](C3=CC(=O)OC3O)C[C@H]12` (stereo not given in full) as the compound, how does the GI50 read?
**A.** inactive: 16.9 µM

**Q.** How did the GI50 turn out when `Cn1c2n/c(=N\c3ccc(Cl)cc3)[n+]3ccc4ccccc4c3c-2c([O-])n1-c1ccccc1` was run?
**A.** inactive: > 100 µM

**Q.** `CC(C(=O)NCNC(=O)c1ccccc1)C(=O)Nc1ccccc1` (stereo not given) was tested. Which GI50 did it give?
**A.** inactive: > 100 µM

**Q.** How did the GI50 turn out when `COc1ccc2[nH]c3c(c2c1)COc1ccccc1C3=O` was run?
**A.** inactive: > 100 µM

**Q.** `Cc1nc2sccn2c1C(=O)NC(=O)Nc1ccc(Cl)cc1` was tested. Which GI50 did it give?
**A.** inactive: > 100 µM

**Q.** For `COc1ccc(-c2csc(=[N+]3CCCCC3)s2)cc1`, which GI50 is on record?
**A.** inactive: 5.68 µM

**Q.** With `Cc1ccc(-c2nc(N/N=C/C=C/c3ccccc3)c3ccccc3n2)cc1` as the compound, how does the GI50 read?
**A.** inactive: 18.1 µM

**Q.** Which GI50 does the source give for `CCCCOC(=O)C(=O)C(CC(C(=O)Cc1ccccc1)c1ccccc1)C(=O)C=C(C)C` (stereo not given) here?
**A.** inactive: > 100 µM

**Q.** `CC(C)CCCCCCCCCCCCC(=O)NCC(=O)NC1C(O)C(O)C(Nc2[nH]cnc3ncnc2-3)OC1C(O)CO` (stereo not given) was tested. Which GI50 did it give?
**A.** active: 0.00169 µM

**Q.** How did the GI50 turn out when `CCOC(=O)c1nc2ccccc2nc1Nc1cc(OC)c(OC)c(OC)c1` was run?
**A.** inactive: > 100 µM

**Q.** How did the GI50 turn out when `CC(=N)OC1CC2CCC1(C)C2(C)C` (stereo not given) was run?
**A.** inactive: > 100 µM

**Q.** `COc1cc(C2c3cc4c(cc3C3OC[C@@H]2C3CO)OCO4)cc(OC)c1OC` (stereo not given in full) was tested. Which GI50 did it give?
**A.** inactive: 42.4 µM

**Q.** Which GI50 does the source give for `Cc1ccc(NC(=O)C(=O)C(C2C(C)CC(=O)C2CC(=O)O)[N+](=O)[O-])cc1` (stereo not given) here?
**A.** inactive: > 100 µM

**Q.** `CSc1nc(N)c2c(-c3ccccc3)c3c(nc2n1)CCCC3` was tested. Which GI50 did it give?
**A.** inactive: > 100 µM

**Q.** `CCP(=O)(OC)C1=CCN(C(=O)OCC[Si](C)(C)C)CC1` (stereo not given) was tested. Which GI50 did it give?
**A.** inactive: > 100 µM

**Q.** Which GI50 does the source give for `Cc1ccc(S(=O)(=O)N[C@@H](Cc2ccccc2)C(=O)CCl)cc1` [TPCK] here?
**A.** inactive: 17 µM

**Q.** Which GI50 does the source give for `CC(=O)O[C@H]1CC[C@@]2(C)C(=CC[C@H]3[C@@H]4C/C(=C\c5ccncc5)[C@H](OC(C)=O)[C@@]4(C)CC[C@@H]32)C1` here?
**A.** inactive: 13.2 µM

**Q.** With `Oc1ccc(Cl)cc1C1=NC(/N=C\c2ccccc2)=NC(c2ccccc2)C1` (stereo not given) as the compound, how does the GI50 read?
**A.** inactive: 91.8 µM

**Q.** For `COC(=O)/C=C\C(C#N)(C#N)/N=C/c1ccc(C)cc1`, which GI50 is on record?
**A.** inactive: 19.8 µM

**Q.** With `CN(C)c1ccc(/C=N/Nc2nc3ccccc3c(=O)n2-c2ccccc2)cc1` as the compound, how does the GI50 read?
**A.** inactive: 92.3 µM

**Q.** Which GI50 does the source give for `Nc1nccc(NCC2(CO)CCC2)n1` here?
**A.** inactive: > 100 µM

**Q.** With `Cc1cnc2c(c1)C(=O)N(c1ccc([N+](=O)[O-])cc1)S2(=O)=O` as the compound, how does the GI50 read?
**A.** inactive: > 100 µM

**Q.** How did the GI50 turn out when `CC[n+]1cnc(N)c2c(-c3ccc(Cl)cc3)cn(-c3ccc(C)cc3)c21` was run?
**A.** inactive: 15 µM

**Q.** Which GI50 does the source give for `CC(=O)OC1C/C(C)=C/CCC(C)/C=C/C2(C)CCC(C(C)(C)O)C12` (stereo not given) here?
**A.** inactive: 67.3 µM

**Q.** `COC(=O)/N=[N+](\[O-])C(c1ccc(OC)cc1)C1CCCCC1` (stereo not given) was tested. Which GI50 did it give?
**A.** inactive: 1.8 µM

**Q.** How did the GI50 turn out when `CCCCNC(=S)Nc1nc(C(=O)NNC(=O)c2ccccc2)cs1` was run?
**A.** inactive: 12 µM

**Q.** For `CCOC(=O)c1c(SCCN2CCCC2)n(-c2ccccc2)c(=S)n(-c2ccccc2)c1=O`, which GI50 is on record?
**A.** inactive: 18.2 µM

**Q.** Which GI50 does the source give for `CC1=C(C(=O)Nc2ccccc2C)C(c2ccccc2)C(C(=O)Nc2ccccc2C)=C(C)N1` here?
**A.** inactive: > 100 µM

**Q.** For `COC(=O)C#Cc1cccc(OC)c1OC`, which GI50 is on record?
**A.** inactive: 75.9 µM

**Q.** Which GI50 does the source give for `COc1ccc(/C=C/C(C(=O)O)C(=O)O)cc1` here?
**A.** inactive: > 100 µM

**Q.** How did the GI50 turn out when `O=C(O)CCSCc1ccccc1` was run?
**A.** inactive: > 100 µM

**Q.** With `CCOc1ccc(NC(=O)CC2C(=O)Nc3ccccc3[S+]2[O-])cc1` (stereo not given) as the compound, how does the GI50 read?
**A.** inactive: > 100 µM

**Q.** `CNc1ccc([S+]([O-])Nc2ccccc2)cc1` (stereo not given) was tested. Which GI50 did it give?
**A.** inactive: > 100 µM

**Q.** Which GI50 does the source give for `CC(C)(C)OC(=O)N1C(c2cccnc2)=CC[C@H]2C3CC=C(c4cccnc4)[C@@]3(C)CC[C@@H]21` (stereo not given in full) here?
**A.** inactive: 13.9 µM

**Q.** `COc1ccc(/C=C2\C[C@H]3[C@@H]4CCC5=C[C@@H](N6CCCC6)CC[C@]5(C)[C@H]4CC[C@]3(C)[C@H]2O)cc1` was tested. Which GI50 did it give?
**A.** inactive: 3.21 µM

**Q.** `Cc1ccc2c(c1)C(=O)C(C1OC(=O)c3ccccc31)C2` (stereo not given) was tested. Which GI50 did it give?
**A.** inactive: 37.2 µM

**Q.** For `c1cnc2c(c1)Nc1cnncc1S2`, which GI50 is on record?
**A.** inactive: > 100 µM

**Q.** With `CCOC(=O)c1ccc2nc(NC(=O)COC(=O)CSc3nc(C)cc(C)n3)sc2c1` as the compound, how does the GI50 read?
**A.** inactive: 37 µM

**Q.** For `C=C(C)[C@@H]1CCC2=C(CC[C@]3(C)[C@@H]([C@@H](CCC=C(C)C)C(=O)O)[C@H](O)C[C@@]23C)[C@@]1(C)CCC(=O)O` [PORICOIC ACID G], which GI50 is on record?
**A.** inactive: > 100 µM

**Q.** Which GI50 does the source give for `O=S(=O)(O)c1cc(/N=N/c2c(O)ccc3ccccc23)c2c(S(=O)(=O)O)cccc2c1` here?
**A.** inactive: > 100 µM

**Q.** Which GI50 does the source give for `c1ccc2c(c1)nnn1c3cnccc3nc21` here?
**A.** inactive: 26 µM

**Q.** Which GI50 does the source give for `[O-][N+]1=C2CCC/C(=N/O)C2(O)C2CCCCC21N1CCOCC1` (stereo not given) here?
**A.** inactive: > 100 µM

**Q.** `O=C(O/N=C1/CCCC/C1=C\c1ccccc1)c1ccc(Cl)cc1` was tested. Which GI50 did it give?
**A.** inactive: > 100 µM

**Q.** `Cc1ccc(C(O)(c2ccc(C)cc2)c2ccccn2)cc1` was tested. Which GI50 did it give?
**A.** inactive: > 100 µM

**Q.** With `COC(=O)C(C(=O)C(=O)Nc1ccc(Br)cc1)c1nc2ccc(Cl)cc2nc1O` (stereo not given) as the compound, how does the GI50 read?
**A.** inactive: > 100 µM

**Q.** `Cc1c(C)c(C)c(-n2c(=O)n(C)c(=O)n2-n2c(=O)n(C)c(=O)n2-c2c(C)c(C)c(C)c(C)c2C)c(C)c1C` was tested. Which GI50 did it give?
**A.** inactive: > 100 µM

**Q.** `NC(Cc1cccc([N+](=O)[O-])c1)C(=O)O` (stereo not given) was tested. Which GI50 did it give?
**A.** inactive: > 100 µM

**Q.** Which GI50 does the source give for `COc1cc2c(c(OC)c1OC)C(=O)[C@H](O)[C@H]2NC(N)=O` here?
**A.** inactive: 75.3 µM

**Q.** For `COc1ccc2nc3cc(Cl)ccc3c(NCCCNCCCNc3c4ccc(Cl)cc4nc4ccc(OC)cc34)c2c1`, which GI50 is on record?
**A.** active: 0.0285 µM

**Q.** For `CC(SC(=S)N1CCCCC1)C(=O)Nc1nnc(-c2ccc(Cl)cc2)o1` (stereo not given), which GI50 is on record?
**A.** inactive: 33.4 µM

**Q.** `Cc1ccc(/C=C/C(=O)c2sc(C(N)=S)nc2C)cc1` was tested. Which GI50 did it give?
**A.** inactive: > 100 µM

**Q.** For `CSc1nc(O)c(C#N)c(-c2ccc(Cl)cc2)n1`, which GI50 is on record?
**A.** inactive: > 100 µM

**Q.** `C=CC1=C(C)c2cc3[nH]c(c4c5nc(cc6[nH]c(cc1n2)c(C)c6CC)C(C)=C5C(=O)[C@@H]4C(=O)OC)[C@@H](CCC(=O)O)[C@@H]3C` was tested. Which GI50 did it give?
**A.** inactive: 22.8 µM

**Q.** Which GI50 does the source give for `O=C1c2ccccc2C2(O)c3cc4ccccc4cc3OC12O` (stereo not given) here?
**A.** inactive: > 100 µM

**Q.** For `COc1cc(NCC(C#N)C#N)ccc1/N=N/c1ccc([N+](=O)[O-])cc1`, which GI50 is on record?
**A.** inactive: > 100 µM

**Q.** Which GI50 does the source give for `COc1cc2c(cc1OC)C(C(c1ccccc1)c1ccccc1)N(C)CC2` (stereo not given) here?
**A.** inactive: > 100 µM

**Q.** How did the GI50 turn out when `CCC(C)C1NC(=O)CNC(=O)C2Cc3c([nH]c4cc(O)ccc34)[S+]([O-])CC(NC(=O)CNC1=O)C(=O)NC(CC(=O)O)C(=O)N1CC(O)CC1C(=O)NC(C(C)C(O)CO)C(=O)N2` (stereo not given) was run?
**A.** inactive: 5.16 µM
